# The other results are listed elsewhere or left out.
# B1: Mermaid3 (Stilbonema majum) (protein)
# chain: MGSSHHHHHHSSGLVPRGSHMAASGWLRSPQGTVVKLYRRSLSWSKADEFCKDVDGRLVVDRTADMHLFLIKNVLKEKKSRVWVGLRRTASHSRTWIWSDGTRQNEGDLDANLWLRDEPNDAAGEEECALFMYSPWEKAWGLNDYLCRGGCRNYQFICEKWIR
# Columns and labels:
# Assay in all cases: glycan array binding signal (z-score within array); higher = stronger binding
# Settings in all cases: glycan notation: IUPAC condensed, linker removed
# [1] = target: Gal3S(b1-4)Glc
# Procedure, shortened: (§1)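 The binding signal is a Z-score computed within each array and averaged over linkers. Arrays of the same protein sequence at different concentrations or buffers were also averaged together. Data originate from 3228 arrays in the Consortium for Functional Glycomics database, kept only where the protein sequence was available.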
# [2] = target: Gal3S(b1-4)Glc6S
# Procedure, shortened: as §1
# [3] = target: Gal3S(b1-4)GlcNAc
# Procedure, shortened: as §1
# [4] = target: Gal3S(b1-4)[Fuc(a1-3)]Glc6S
# Procedure, shortened: as §1
# [5] = target: Gal3S(b1-4)[Fuc(a1-3)]GlcNAc
# Procedure, shortened: as §1
# [6] = target: Gal3S(b1-4)[Fuc(a1-3)]GlcNAc6S
# Procedure, shortened: as §1
# [7] = target: Gal3S4S(b1-4)GlcNAc
# Procedure, shortened: as §1
# [8] = target: Gal3S6S(b1-4)GlcNAc
# Procedure, shortened: as §1
# [9] = target: Gal3S6S(b1-4)GlcNAc6S
# Procedure, shortened: as §1
# [10] = target: Gal4S(b1-4)GlcNAc
# Procedure, shortened: as §1
# [11] = target: Gal4S6S(b1-4)GlcNAc
# Procedure, shortened: as §1
# [12] = target: Gal6P(b1-4)GlcNAc
# Procedure, shortened: as §1
# [13] = target: Gal6S(b1-3)GlcNAc
# Procedure, shortened: as §1
# [14] = target: Gal6S(b1-3)GlcNAc6S
# Procedure, shortened: as §1
# [15] = target: Gal6S(b1-4)Glc
# Procedure, shortened: as §1
# [16] = target: Gal6S(b1-4)Glc6S
# Procedure, shortened: as §1
# [17] = target: Gal6S(b1-4)GlcNAc
# Procedure, shortened: as §1
# [18] = target: Gal6S(b1-4)GlcNAc6S
# Procedure, shortened: as §1
# [19] = target: GalNAc(a1-3)Gal
# Procedure, shortened: as §1
# [20] = target: GalNAc(a1-3)GalNAc
# Procedure, shortened: as §1
# [21] = target: GalNAc(a1-3)GalNAc(b1-3)Gal(a1-4)Gal(b1-4)Glc
# Procedure, shortened: as §1
# [22] = target: GalNAc(a1-3)GalNAc(b1-3)Gal(a1-4)Gal(b1-4)GlcNAc
# Procedure, shortened: as §1
# [23] = target: GalNAc(b1-3)Gal
# Procedure, shortened: as §1
# [24] = target: GalNAc(b1-3)Gal(a1-4)Gal(b1-4)GlcNAc
# Procedure, shortened: as §1
# [25] = target: GalNAc(b1-3)Gal(a1-4)Gal(b1-4)GlcNAc(b1-3)Gal(b1-4)Glc
# Procedure, shortened: as §1
# [26] = target: GalNAc(b1-3)Gal(a1-6)Gal(b1-4)Glc
# Procedure, shortened: as §1
# [27] = target: GalNAc(b1-3)GalNAc
# Procedure, shortened: as §1
# [28] = target: GalNAc(b1-3)GlcNAc
# Procedure, shortened: as §1
# [29] = target: GalNAc(b1-4)Gal(b1-4)Glc
# Procedure, shortened: as §1
# [30] = target: GalNAc(b1-4)GlcNAc
# Procedure, shortened: as §1
# [31] = target: GalNAc(b1-4)GlcNAc(b1-2)Man
# Procedure, shortened: as §1
# [32] = target: GalNAc(b1-4)GlcNAc(b1-2)Man(a1-3)[GalNAc(b1-4)GlcNAc(b1-2)Man(a1-6)]Man(b1-4)GlcNAc(b1-4)GlcNAc
# Procedure, shortened: as §1
# [33] = target: GalNAc(b1-4)GlcNAc(b1-3)GalNAc(b1-4)GlcNAc
# Procedure, shortened: as §1
# [34] = target: GalNAc(b1-4)GlcNAc6S
# Procedure, shortened: as §1
# [35] = target: GalNAc(b1-6)GalNAc
# Procedure, shortened: as §1
# [36] = target: GalNAc3S(b1-4)GlcNAc
# Procedure, shortened: as §1
# [37] = target: GalNAc3S(b1-4)GlcNAc3S
# Procedure, shortened: as §1
# [38] = target: GalNAc3S(b1-4)[Fuc(a1-3)]GlcNAc
# Procedure, shortened: as §1
# [39] = target: GalNAc4S6S(b1-4)GlcNAc
# Procedure, shortened: as §1
# [40] = target: GalNAc6S(b1-4)GlcNAc
# Procedure, shortened: as §1
# [41] = target: Glc(a1-4)Glc
# Procedure, shortened: as §1
# [42] = target: Glc(a1-4)Glc(a1-4)Glc(a1-4)Glc
# Procedure, shortened: as §1
# [43] = target: Glc(a1-6)Glc(a1-6)Glc
# Procedure, shortened: as §1
# [44] = target: Glc(a1-6)Glc(a1-6)Glc(a1-6)Glc
# Procedure, shortened: as §1
# [45] = target: Glc(b1-4)Glc
# Procedure, shortened: as §1
binder,measurement,setting,value
B1,glycan array binding signal (z-score),[1],-0.59
same,glycan array binding signal (z-score),[2],-0.077
same,glycan array binding signal (z-score),[3],0.944
same,glycan array binding signal (z-score),[4],0.09
same,glycan array binding signal (z-score),[5],0.672
same,glycan array binding signal (z-score),[6],1.3
same,glycan array binding signal (z-score),[7],-0.329
same,glycan array binding signal (z-score),[8],1.13
same,glycan array binding signal (z-score),[9],0.454
same,glycan array binding signal (z-score),[10],-0.658
same,glycan array binding signal (z-score),[11],-0.584
same,glycan array binding signal (z-score),[12],-0.473
same,glycan array binding signal (z-score),[13],-0.509
same,glycan array binding signal (z-score),[14],-0.579
same,glycan array binding signal (z-score),[15],-0.154
same,glycan array binding signal (z-score),[16],0.727
same,glycan array binding signal (z-score),[17],-0.386
same,glycan array binding signal (z-score),[18],0.906
same,glycan array binding signal (z-score),[19],-0.587
same,glycan array binding signal (z-score),[20],-0.667
same,glycan array binding signal (z-score),[21],-0.674
same,glycan array binding signal (z-score),[22],-0.61
same,glycan array binding signal (z-score),[23],-0.727
same,glycan array binding signal (z-score),[24],0.257
same,glycan array binding signal (z-score),[25],-0.537
same,glycan array binding signal (z-score),[26],-0.404
same,glycan array binding signal (z-score),[27],-0.683
same,glycan array binding signal (z-score),[28],-0.595
same,glycan array binding signal (z-score),[29],-0.097
same,glycan array binding signal (z-score),[30],-0.212
same,glycan array binding signal (z-score),[31],-0.708
same,glycan array binding signal (z-score),[32],-0.498
same,glycan array binding signal (z-score),[33],2.33
same,glycan array binding signal (z-score),[34],3.6
same,glycan array binding signal (z-score),[35],-0.465
same,glycan array binding signal (z-score),[36],-0.079
same,glycan array binding signal (z-score),[37],-0.092
same,glycan array binding signal (z-score),[38],-0.526
same,glycan array binding signal (z-score),[39],-0.41
same,glycan array binding signal (z-score),[40],-0.209
same,glycan array binding signal (z-score),[41],0.381
same,glycan array binding signal (z-score),[42],0.486
same,glycan array binding signal (z-score),[43],-0.785
same,glycan array binding signal (z-score),[44],2.2
same,glycan array binding signal (z-score),[45],0.226

# — the supplement of paper PMC8728848
